Measured values reported in US20060009506A1, “Drugs for the treatment of neoplastic disorders” (Odyssey Thera, Inc., priority 2004, published 2006).

How the values were obtained:
MIA PaCa-2 cells = assay: MTT proliferation assay, pancreatic carcinoma MIA PaCa-2; format: cell-based; conditions: Homo sapiens, MIA PaCa-2, 120 h, Tumor Cell: Pancreatic (MIA PaCa-2), concentrations tested in microM
From the text: (§1) We first screened compounds derived from the known pharmacopeia and from a selected natural product collection using two types of assays: (a) measurements of post-translational modifications of proteins; (b) measurements of protein-protein interactions. For the purpose of measuring post-translational modifications of proteins, we used immunofluorescence methods combined with phospho-specific antibodies. For the purpose of quantifying and localizing protein complexes we used fluorescence methods based on protein-fragment complementation assays (PCA). ‘Hits’ from the initial screens were then tested for antiproliferative activity in up to 5 different human tumor cell lines. […] For drugs with antiproliferative activity in PC-3 cells, dose-response curves were generated to determine the EC50 for antiproliferative activity and additional tumor cell lines were tested to determine the breadth of activity. Methods for assay development, validation, screening, and testing of antiproliferative activity are described below.
(§2) Cells were maintained in various media as follows: A549, LoVo and PC-3 (Ham's F12K medium with 2 mM L-glutamine and 1.5 g/L sodium bicarbonate), MIA PaCa-2 (Dulbecco's modified Eagle's medium with 4 mM L-glutamine and 4.5 g/L glucose), U87-MG (MEM+Earle's BSS). […] Background absorbance was established by wells containing medium but no cells. […]

A549 cells = assay: MTT proliferation assay, non-small cell lung carcinoma A549; format: cell-based; conditions: Homo sapiens, A549, 120 h, Tumor Cell: NSCLC (A549), concentrations tested in microM
From the text: as §1
Cells were maintained in various media as follows: A549, LoVo and PC-3 (Ham's F12K medium with 2 mM L-glutamine and 1.5 g/L sodium bicarbonate), MIA PaCa-2 (Dulbecco's modified Eagle's medium with 4 mM L-glutamine and 4.5 g/L glucose), U87-MG (MEM+Earle's BSS). Medium for each cell line was supplemented with 10% FBS and […] Penecillin/Streptomycin. All cells were grown in incubators set at 37° C., 5% CO2. Thiazolyl Blue Tetrazolium Bromide (MTT) based proliferation assays were performed to assess the anti-proliferative activities of the compounds on these cells. Cells were seeded in 96 well plates at a density of 750 cells/well 24 hours prior to compound treatment. The cells were incubated with varying concentrations of compounds for 120 hours. […] Drug treatment was performed in 5 replicate wells. Background absorbance was established by wells containing medium but no cells. Vehicle (DMSO) only was used as control. MTT (Sigma-Aldrich, St. Louis, Mo.) was added to each well at a final concentration of 0.5 mg/ml. […]

U-87 MG cells = assay: MTT proliferation assay, glioblastoma U-87 MG; format: cell-based; conditions: Homo sapiens, Tumor Cell: Glioblastoma (U-87 MG), 120 hours, concentrations tested in microM
From the text: as §1, §2

LoVo cells = assay: MTT proliferation assay, colon adenocarcinoma LoVo; format: cell-based; conditions: Homo sapiens, Tumor Cell: Colon (LoVo), 120 hours, concentrations tested in microM
From the text: as §1, §2

PC-3 cells = assay: MTT proliferation assay, prostate adenocarcinoma PC-3; format: cell-based; conditions: Homo sapiens, Tumor Cell: Prostate (PC-3), 120 hours, concentrations tested in microM
From the text: as §1, §2

cancer pathways = assay: Screening of cancer pathways in human cells (PCA and phospho-immunofluorescence); format: cell-based; conditions: cancer pathway in which the drug was active; screened at 10 micromolar, HEK293 cells
From the text: as §1, with “Methods for assay development, validation, screening, and testing of antiproliferative activity are described below.” left out
Immunofluorescence was performed on drug-treated cells using antibodies that specifically recognize phosphorylated forms of key signaling proteins. […] Background fluorescence due to nonspecific binding by the secondary antibody was established with the use of cells that were incubated with BSA/PBS and without primary antibodies. Fluorescence intensities were quantitated using Image J-based image analysis algorithm as described below. […]

cancer cells = assay: Antiproliferative activity against cancer cells (cell line not stated); format: cell-based, human; conditions: general statement
From the text: We first screened compounds derived from the known pharmacopeia and from a selected natural product collection using two types of assays: (a) measurements of post-translational modifications of proteins; (b) measurements of protein-protein interactions. For the purpose of measuring post-translational modifications of proteins, we used immunofluorescence methods combined with phospho-specific antibodies. For the purpose of quantifying and localizing protein complexes we used fluorescence methods based on protein-fragment complementation assays (PCA). ‘Hits’ from the initial screens were then tested for antiproliferative activity in up to 5 different human tumor cell lines. […]
Cells were maintained in various media as follows: A549, LoVo and PC-3 (Ham's F12K medium with 2 mM L-glutamine and 1.5 g/L sodium bicarbonate), MIA PaCa-2 (Dulbecco's modified Eagle's medium with 4 mM L-glutamine and 4.5 g/L glucose), U87-MG (MEM+Earle's BSS). […] Background absorbance was established by wells containing medium but no cells. […] Mean absorbance values were calculated from 5 replicate wells of each drug treatment following subtraction of background absorbance from blank samples and plotted as a percentage of control.

| IC50 (MIA PaCa-2 cells) | IC50 (A549 cells) | IC50 (U-87 MG cells) | IC50 (LoVo cells) | IC50 (PC-3 cells) | Compound | Pathway Activity (cancer pathways) | Antiproliferative activity against cancer cells (cancer cells) |
| --- | --- | --- | --- | --- | --- | --- | --- |
| > 40 µM | 5.71 µM | > 40 µM | 7.14 µM | 10.5 µM | C(=C\c1ccccc1)/CN1CCN(C(c2ccccc2)c2ccccc2)CC1 [Cinnarizine] | apoptosis | substantial antiproliferative activity |
|  | 8.35 µM |  |  |  | CCN(CC)CCOc1ccc(C(=C(Cl)c2ccccc2)c2ccccc2)cc1 [Clomiphene] |  |  |
| 22.5 µM | 18.2 µM |  |  |  | Fc1ccc(C(c2ccc(F)cc2)N2CCN(C/C=C/c3ccccc3)CC2)cc1 [Flunarizine] |  |  |
